The results in this text go back to publication PMC12292926.

By UniProt entry, the sequences of proteins in these tests, tags left out. Where a name states a change or a piece, a line headed by the entry shows the natural chain unless it says otherwise. Chains listed by the source or under a name are the forms on record and can include a tag or linker. Residues count along the entry.
UniProt Q8IZL8: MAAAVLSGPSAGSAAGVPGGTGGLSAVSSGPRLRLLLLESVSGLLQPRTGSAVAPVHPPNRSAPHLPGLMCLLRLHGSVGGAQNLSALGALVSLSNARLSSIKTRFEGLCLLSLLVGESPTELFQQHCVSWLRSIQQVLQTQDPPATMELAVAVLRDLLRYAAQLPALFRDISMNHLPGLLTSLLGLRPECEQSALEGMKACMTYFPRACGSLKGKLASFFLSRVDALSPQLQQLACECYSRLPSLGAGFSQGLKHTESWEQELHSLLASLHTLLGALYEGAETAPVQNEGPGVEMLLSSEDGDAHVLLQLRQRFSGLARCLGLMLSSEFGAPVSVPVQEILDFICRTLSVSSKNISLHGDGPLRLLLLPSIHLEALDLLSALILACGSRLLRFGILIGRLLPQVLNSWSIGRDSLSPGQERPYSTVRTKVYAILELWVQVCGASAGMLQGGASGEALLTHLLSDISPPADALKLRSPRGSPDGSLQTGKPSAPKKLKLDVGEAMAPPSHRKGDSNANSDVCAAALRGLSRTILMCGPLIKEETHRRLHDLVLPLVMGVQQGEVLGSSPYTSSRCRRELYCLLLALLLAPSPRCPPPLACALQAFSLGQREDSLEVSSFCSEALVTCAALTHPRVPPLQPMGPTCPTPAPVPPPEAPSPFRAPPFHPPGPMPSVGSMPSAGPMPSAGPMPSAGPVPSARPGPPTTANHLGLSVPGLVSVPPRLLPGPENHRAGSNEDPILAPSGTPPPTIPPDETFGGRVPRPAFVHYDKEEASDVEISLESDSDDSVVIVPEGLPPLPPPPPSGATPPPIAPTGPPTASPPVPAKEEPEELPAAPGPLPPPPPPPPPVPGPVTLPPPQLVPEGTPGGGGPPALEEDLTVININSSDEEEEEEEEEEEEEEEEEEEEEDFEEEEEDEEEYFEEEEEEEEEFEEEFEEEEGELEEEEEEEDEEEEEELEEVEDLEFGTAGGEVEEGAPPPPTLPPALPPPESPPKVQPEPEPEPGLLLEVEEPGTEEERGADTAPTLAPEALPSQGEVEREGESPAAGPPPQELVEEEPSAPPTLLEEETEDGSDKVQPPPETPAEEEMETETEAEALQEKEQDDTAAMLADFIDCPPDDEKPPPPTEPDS
FLAG PELP1 C terminus (residues 967 to 1130): residues 967-1130 of Q8IZL8
UniProt Q9H4L4: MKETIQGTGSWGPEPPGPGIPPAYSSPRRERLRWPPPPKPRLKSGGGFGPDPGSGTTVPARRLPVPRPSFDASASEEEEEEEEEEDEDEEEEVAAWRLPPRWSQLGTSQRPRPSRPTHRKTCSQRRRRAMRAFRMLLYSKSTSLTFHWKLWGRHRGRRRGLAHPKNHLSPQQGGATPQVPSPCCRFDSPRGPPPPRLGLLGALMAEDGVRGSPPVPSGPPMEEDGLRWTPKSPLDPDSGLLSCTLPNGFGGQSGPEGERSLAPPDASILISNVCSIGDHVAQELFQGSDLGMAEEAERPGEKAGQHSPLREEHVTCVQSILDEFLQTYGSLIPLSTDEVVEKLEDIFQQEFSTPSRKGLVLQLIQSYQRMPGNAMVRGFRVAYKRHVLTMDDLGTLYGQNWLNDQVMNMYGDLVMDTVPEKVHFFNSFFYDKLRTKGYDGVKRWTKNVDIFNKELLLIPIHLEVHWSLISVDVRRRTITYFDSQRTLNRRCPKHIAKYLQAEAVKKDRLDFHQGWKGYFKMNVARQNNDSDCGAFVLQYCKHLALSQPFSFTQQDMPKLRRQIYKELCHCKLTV
SENP3 SUMO protease domain (residues 303 to 574), N-terminal FLAG tag: residues 303-574 of Q9H4L4

These are yes or no findings as the source states them, for the method shown. In cells and extracts the contact can be indirect. Some entries that bind do so weakly or less than the wild type. For part of these data: Sequences can lack the tags named with a protein.

Experiment [1] deals with FLAG PELP1 C terminus (residues 967 to 1130) (human) (UniProt Q8IZL8). The experiment is described as follows: co-IP; FLAG PELP1 C terminus (967 to 1130) expressed alone in cells; anti-FLAG purification; Western blot and total protein stain for endogenous MDN1.
Experiment [2] deals with PELP1 F1112K, C-terminal FLAG tag (human) (UniProt Q8IZL8). In words: co-IP; anti-FLAG affinity gel; FLAG-tagged PELP1 variants with the exogenous rixosome in HEK293FT; endogenous partners; lysis with or without a nonspecific nuclease (histone bands seen with nuclease); native elution with 3x FLAG peptide, total protein stain; bands identified by mass spectrometry and Western blot. On the technique in general: In western blotting, separated proteins are transferred to a membrane and probed.

Experiment [3] addresses PELP1, wild type, C-terminal FLAG tag (human) (UniProt Q8IZL8). Described as above.
In experiment [4] the target is endogenous PELP1 (human (endogenous in HEK293FT)) (UniProt Q8IZL8). In words: co-IP; nontransfected HEK293FT lysate with a nonspecific nuclease; 1 μg anti-PELP1 antibody (normal rabbit IgG as control), protein G Sepharose, 4°C; Western blot.
Experiment [5] addresses PELP1, wild type, C-terminal FLAG tag (human) (UniProt Q8IZL8). The experiment is described as follows: co-IP; anti-FLAG M2 affinity gel; FLAG-tagged PELP1 variants as bait, exogenous rixosome subunits co-transfected in HEK293FT; lysis in 50 mM Hepes pH 7.5, 200 mM NaCl, 5 mM MgCl2, 10% glycerol, 0.5% NP-40, 1 mM DTT, 4°C; SDS-PAGE and Western blot.
Experiment [6] deals with PELP1 K826R (SUMOylation site lysine 826 to arginine) (human) (UniProt Q8IZL8). The description is as above.
In experiment [7] the target is T1, TEX10, wild type, N-terminal GFP tag (human) (UniProt Q9NXF1).
T1 sequence: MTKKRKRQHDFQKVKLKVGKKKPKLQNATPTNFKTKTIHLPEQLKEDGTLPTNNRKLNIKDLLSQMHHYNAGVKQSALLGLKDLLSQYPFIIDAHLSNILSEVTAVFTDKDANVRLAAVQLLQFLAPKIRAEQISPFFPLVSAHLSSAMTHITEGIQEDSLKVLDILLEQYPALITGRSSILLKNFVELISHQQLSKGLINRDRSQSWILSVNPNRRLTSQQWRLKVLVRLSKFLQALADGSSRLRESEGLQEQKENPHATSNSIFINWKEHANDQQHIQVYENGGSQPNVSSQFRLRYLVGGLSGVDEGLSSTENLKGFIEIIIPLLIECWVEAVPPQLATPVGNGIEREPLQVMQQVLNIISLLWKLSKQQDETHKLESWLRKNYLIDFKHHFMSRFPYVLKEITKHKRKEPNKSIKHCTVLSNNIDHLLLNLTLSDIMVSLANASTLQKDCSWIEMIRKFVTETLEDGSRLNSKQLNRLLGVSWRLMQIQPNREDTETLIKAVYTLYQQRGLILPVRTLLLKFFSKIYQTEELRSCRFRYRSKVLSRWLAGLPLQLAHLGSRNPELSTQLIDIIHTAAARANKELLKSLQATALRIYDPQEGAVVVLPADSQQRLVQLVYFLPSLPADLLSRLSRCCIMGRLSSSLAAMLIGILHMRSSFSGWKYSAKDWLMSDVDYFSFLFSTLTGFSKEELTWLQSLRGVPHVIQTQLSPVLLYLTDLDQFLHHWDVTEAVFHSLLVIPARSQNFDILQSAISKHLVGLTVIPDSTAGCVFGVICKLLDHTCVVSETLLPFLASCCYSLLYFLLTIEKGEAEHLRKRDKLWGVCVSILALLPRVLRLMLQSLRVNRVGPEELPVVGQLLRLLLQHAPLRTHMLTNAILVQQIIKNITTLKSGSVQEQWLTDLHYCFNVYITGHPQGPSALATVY
The experiment is described as follows: co-IP; anti-GFP nanobody Sepharose; N-terminally GFP-tagged TEX10 variants as bait, exogenous rixosome including LAS1L-NOL9 co-transfected in HEK293FT; Western blot.

Experiment [8] deals with SENP3 SUMO protease domain (residues 303 to 574), N-terminal FLAG tag (human) (UniProt Q9H4L4). The experiment is described as follows: co-IP; anti-FLAG M2 affinity gel; N-terminally FLAG-tagged SENP3 truncations as bait, exogenous rixosome co-transfected in HEK293FT; Western blot.

For “endogenous MDN1 (AAA-ATPase) (from UniProt Q9NU22 1-5596) (enzyme)”, the binding result in experiment [1] is “binds”; in experiment [2], “no binding”; in experiment [3] it was “binds”; in experiment [4], “binds”.

Consider “SENP3, co-expressed rixosome subunit found with PELP1 or TEX10 baits (from UniProt Q9H4L4 1-574) (enzyme)”, for which the binding entry in experiment [5], in experiment [6] and in experiment [7] was “binds” each time.

Regarding “PELP1, co-expressed rixosome subunit found with TEX10 or SENP3 baits (from UniProt Q8IZL8 1-1130)”, the binding entry in experiment [8] and in experiment [7] was “binds” each time.
